Values joined by “and” are separate entries in the source; they are usually repeats but may differ in a detail not shown here. Equal entries are not always repeated. The shares of active, inactive and inconclusive entries below differ from those in the screen. For part of these data: Where the call is inconclusive, the potency comes from a doubtful curve fit. Active and inactive are the calls of the source. Unless noted, calls come from the whole dose curve; as a rule, active = well fitted curve in either direction with a large enough effect (not every such curve was filed as active); inconclusive = small, poorly fitted or top-dose-only effect, or another doubt; inactive = flat fitted curve, though single readings scatter.
Key:
[1] = AP1 Signaling Pathway (AID 357); conditions: ME-180 AP-1-bla reporter, EGF-induced, beta-lactamase ratio, 5 h; at 17.2 µM (top of the series) unless noted;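 note: ME-180 reporter cells stimulated with EGF at its EC50 level; top concentration of the series differs between compounds; % is set by controls: 0 for no effect and ±100 for the full control effect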
Procedure, shortened: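 First, ME-180 AP-1-bla cells were cultured overnight at 37 °C in low-serum Opti-MEM. Next, titrated compounds with EC50 EGF were incubated 5 hours. Finally, CCF4 was added for 2.5 hours and the 460/530 nm ratio recorded.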

[2] = NFAT Signaling Pathway (AID 444); conditions: Jurkat NFAT-bla M1, carbachol, beta-lactamase ratio, 5 h; at 17.2 µM (top of the series) unless noted;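 note: carbachol stimulus at about its EC50 of 1 µM final; % is set by controls: 0 for no effect and ±100 for the full control effect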
Procedure, shortened: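 Jurkat cells with NFAT-driven β-lactamase reporter and co-expressed M1 receptor, stimulated with carbachol (final 1 uM, ~EC50), compound titration, 5 h at 37 °C. CCF4 loaded 1 h at RT; 460/530 nm ratio gave %activity and AC50.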

[3] = target: Cytochrome P450 1A2 (Homo sapiens) (UniProt P05177); experiment: p450-cyp1a2 (AID 410; calls by dose curve; note: potency is the fitted concentration of half-maximal effect;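 for activity change, negative = inhibition: top concentration of the series differs between compounds; -100% = full effect of reference inhibitor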)
Chain of UniProt P05177 (P05177 whole entry, looked up): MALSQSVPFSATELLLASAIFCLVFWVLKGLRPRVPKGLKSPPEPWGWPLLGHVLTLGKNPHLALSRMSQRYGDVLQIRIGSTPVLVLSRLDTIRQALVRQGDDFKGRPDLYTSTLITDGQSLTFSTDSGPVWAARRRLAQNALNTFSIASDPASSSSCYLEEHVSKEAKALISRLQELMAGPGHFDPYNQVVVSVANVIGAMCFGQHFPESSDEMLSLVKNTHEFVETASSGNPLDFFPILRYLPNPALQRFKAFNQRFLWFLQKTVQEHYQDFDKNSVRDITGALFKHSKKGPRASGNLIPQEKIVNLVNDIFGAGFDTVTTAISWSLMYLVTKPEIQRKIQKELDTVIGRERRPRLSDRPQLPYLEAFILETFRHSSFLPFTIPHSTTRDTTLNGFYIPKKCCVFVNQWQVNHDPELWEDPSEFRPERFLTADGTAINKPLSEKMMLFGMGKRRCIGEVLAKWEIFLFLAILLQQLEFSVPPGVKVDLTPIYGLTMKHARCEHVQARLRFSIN
Procedure, shortened: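 20nM CYP1A2, 100uM Luciferin-ME (=Km), 100mM KPO4; cpd 10 min RT; +NADPH regen, 60 min RT; stop/detect 20 min; luminescence. Normalized to furafylline 57 uM = full inhibition.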

[4] = Stat Signaling Pathway (AID 446); conditions: ME-180 SIE beta-lactamase reporter, IL-6 stimulated, 5 h; at 7.69 µM (top of the series) unless noted;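 note: ME-180 cervical cancer cells given 40 pM IL-6 alongside compound; SIE-controlled beta-lactamase reporter measured as 460/530 nm FRET emission ratio; top concentration of the series differs between compounds; % is set by controls: 0 for no effect and ±100 for the full control effect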
Procedure, shortened: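 Overnight-plated ME-180 cells bearing a STAT Inducible Element beta-lactamase reporter; 5 h co-exposure to compound and 40 pM IL-6; values normalized to 300 pM IL-6 and 125 nM JAK inhibitor controls.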

[5] = target: Mitogen-activated protein kinase 10 (Mus musculus) (UniProt Q61831); experiment: JNK3 AlphaScreen Assay (AID 530); conditions: JNK3 lysate, c-Jun phosphorylation; activity change, negative = inhibition: at 57.1 µM (top of the series);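 note: kinase came from lysate of stimulated human HepG2 cells; signal reports phosphorylation of biotinylated GST-cJun 1-79 at Ser73 with 10 µM ATP; potency is the fitted concentration of half-maximal effect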
Procedure, shortened: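 HepG2 lysate (IL-1b/TNFa pre-activated) + biotin-GST-cJun 1-79 + anti-pSer73 cJun; cpd titration, 15 min RT; ATP 10 uM start; Tris pH 7.6, MgCl2, DTT, vanadate; beads in EDTA buffer; AlphaScreen.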

[6] = qHTS Assay for Identification of Small Molecule Antagonists for NFkB Signaling Pathway (AID 895; active = well fitted inhibition curve with a large enough effect in the signal ratio, with a control signal flat, not every such curve was filed as active; inconclusive = small, poorly fitted or top-dose-only effect, or effect the other way, or a change in a side signal; the % refers to the signal ratio; note: potency is the fitted concentration of half-maximal effect); conditions: NFkB beta-lactamase reporter cells, FRET ratio 460/530, stimulated with 10 pM TNF alpha; activity change, negative = inhibition: at 38.3 µM (top of the series)
Procedure, shortened: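 ME-180 NFkB-bla cells (beta-lactamase under NFkB response element), plated overnight, treated with compound then 10 pM TNF alpha (about EC50) for 5 hrs at 37 C. LiveBLAzer FRET read at 460/530 nm emission, 405 nm excitation.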

[7] = qHTS Assay for Identification of Small Molecule Agonists for Hypoxia Response Element Signaling Pathway (AID 914; active = well fitted activation curve with a large enough effect in the signal ratio, with a control signal flat, not every such curve was filed as active; inconclusive = small, poorly fitted or top-dose-only effect, or effect the other way, or a change in a side signal; the % refers to the signal ratio; note: potency is the fitted concentration of half-maximal effect; for activation: top concentration of the series differs between compounds; % of control where 0% means no effect); conditions: ME-180 (cervical carcinoma) HRE-bla reporter, beta-lactamase ratio, CoCl2, 17 h; activation: hits give high values
Procedure, shortened: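 Compounds in a titration series were added to ME-180 reporter cells alongside an EC50 level of CoCl2. After 17 hours, beta-lactamase activity was read as the 460nm/530nm emission ratio of CCF4, giving AC50 values.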

[8] = qHTS Assay for Identification of Small Molecule Agonists for Thrombopoietin (TPO) Signaling Pathway (AID 917; active = well fitted curve in the direction sought with a large enough effect; inconclusive = small, poorly fitted or top-dose-only effect, or another doubt; inactive = no such curve, though single readings can be large; an effect the other way counts as inactive or inconclusive; note: potency is the fitted concentration of half-maximal effect); conditions: TPO signaling pathway reporter cells, agonist qHTS, stimulated with TPO at its EC50; activity, positive = activation: at 38.5 µM (top of the series)
Procedure, shortened: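 Human TPO receptor–transfected Ba/F3 cells (murine, IL-3-dependent) in IL-3-deficient medium; compounds plus TPO at EC50, 26 pM final; 24 hrs, 37 C; GpIIb-luciferase luminescence after 10 min RT detection.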

[9] = qHTS Assay for Identification of Small Molecule Agonists for NFkB Signaling Pathway (AID 928; calls by dose curve); conditions: NFkB beta-lactamase reporter cells, blue/green ratio
Procedure, shortened: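 Activators were sought with TNF alpha co-added at 10 pM final (its EC50) to beta-lactamase reporter cells. Cells were plated in OPTI MEM with 0.5% FBS and exposed for 5 hrs at 37 C. The FRET substrate ratio was read at 460 and 530 nm.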

[10] = target: Muscarinic acetylcholine receptor M1 (Rattus norvegicus) (UniProt P08482); experiment: qHTS Assay for Antagonists of Acetylcholine Muscarinic M1 Receptor: Kinetic Measurement of Intracellular Calcium Response (AID 943; active = well fitted curve in the direction sought with a large enough effect; inconclusive = small, poorly fitted or top-dose-only effect, or another doubt; inactive = no such curve, though single readings can be large; an effect the other way counts as inactive or inconclusive; note: potency is the fitted concentration of half-maximal effect; nearly all actives have a fitted effect of over 75% in size)
Chain of UniProt P08482 (P08482 whole entry, looked up): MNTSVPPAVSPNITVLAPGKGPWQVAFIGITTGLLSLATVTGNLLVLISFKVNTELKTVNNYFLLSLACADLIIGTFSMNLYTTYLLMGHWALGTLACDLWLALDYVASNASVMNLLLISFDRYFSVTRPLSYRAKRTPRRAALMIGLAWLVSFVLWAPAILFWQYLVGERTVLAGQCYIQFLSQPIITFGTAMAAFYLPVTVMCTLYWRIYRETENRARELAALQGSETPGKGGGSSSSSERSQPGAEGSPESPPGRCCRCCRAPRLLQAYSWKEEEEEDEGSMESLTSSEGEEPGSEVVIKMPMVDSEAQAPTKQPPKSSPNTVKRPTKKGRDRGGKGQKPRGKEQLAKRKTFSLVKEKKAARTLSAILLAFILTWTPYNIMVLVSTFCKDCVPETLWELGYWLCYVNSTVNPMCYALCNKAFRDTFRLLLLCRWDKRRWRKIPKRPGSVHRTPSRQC
Procedure, shortened: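 Read-out: peak over basal Fluo-4 fluorescence, kinetic at 1 Hz for 4 min after EC80 carbachol (100 nM final). Rat M1-CHO cells, dye loaded 1 h at 37C, compound added 10 min before agonist.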

[11] = target: Muscarinic acetylcholine receptor M1 (Rattus norvegicus) (UniProt P08482); experiment: qHTS Assay for Antagonists of Acetylcholine Muscarinic M1 Receptor: Measurement of IP-One Response (AID 944; active = well fitted curve in the direction sought with a large enough effect; inconclusive = small, poorly fitted or top-dose-only effect, or another doubt; inactive = no such curve, though single readings can be large; an effect the other way counts as inactive or inconclusive; note: potency is the fitted concentration of half-maximal effect; nearly all actives have a fitted effect of over 75% in size)
[12] = target: Pyruvate kinase (Leishmania mexicana) (UniProt Q27686); experiment: qHTS Validation Assay for Inhibitors of Leishmania Mexicana Pyruvate Kinase (AID 945; active = well fitted curve in the direction sought with a large enough effect; inconclusive = small, poorly fitted or top-dose-only effect, or another doubt; inactive = no such curve, though single readings can be large; an effect the other way counts as inactive or inconclusive; note: potency is the fitted concentration of half-maximal effect)
Chain of UniProt Q27686 (Q27686 2-499 E452W): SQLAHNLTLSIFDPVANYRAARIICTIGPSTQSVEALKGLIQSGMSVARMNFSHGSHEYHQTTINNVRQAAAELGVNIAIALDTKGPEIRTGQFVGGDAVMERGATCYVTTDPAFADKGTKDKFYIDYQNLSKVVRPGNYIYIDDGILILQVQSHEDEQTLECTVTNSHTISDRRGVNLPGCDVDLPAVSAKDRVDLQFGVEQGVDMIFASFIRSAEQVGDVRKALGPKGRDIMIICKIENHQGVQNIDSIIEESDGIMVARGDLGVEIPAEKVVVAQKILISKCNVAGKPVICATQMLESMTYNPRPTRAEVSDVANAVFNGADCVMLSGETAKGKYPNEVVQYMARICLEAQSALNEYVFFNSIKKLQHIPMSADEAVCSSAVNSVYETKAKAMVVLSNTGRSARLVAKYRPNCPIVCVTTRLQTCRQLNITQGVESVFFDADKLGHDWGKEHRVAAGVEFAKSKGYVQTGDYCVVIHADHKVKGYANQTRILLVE
Procedure, shortened: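 Pyruvate kinase activity of E451W LmPYK (0.2 nM) was followed as ATP output after 1 h at room temperature with 0.5 mM PEP and 0.1 mM ADP, detected by PKLight luminescence.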

[13] = target: Cytochrome P450 3A4 (Homo sapiens) (UniProt P08684); experiment: qHTS Assay for Inhibitors and Substrates of Cytochrome P450 3A4 (AID 884; active = well fitted curve in the direction sought with a large enough effect; inconclusive = small, poorly fitted or top-dose-only effect, or another doubt; inactive = no such curve, though single readings can be large; an effect the other way counts as inactive or inconclusive; note: potency is the fitted concentration of half-maximal effect; nearly all actives have a fitted effect of over 50% in size)
Chain of UniProt P08684 (P08684 whole entry, looked up): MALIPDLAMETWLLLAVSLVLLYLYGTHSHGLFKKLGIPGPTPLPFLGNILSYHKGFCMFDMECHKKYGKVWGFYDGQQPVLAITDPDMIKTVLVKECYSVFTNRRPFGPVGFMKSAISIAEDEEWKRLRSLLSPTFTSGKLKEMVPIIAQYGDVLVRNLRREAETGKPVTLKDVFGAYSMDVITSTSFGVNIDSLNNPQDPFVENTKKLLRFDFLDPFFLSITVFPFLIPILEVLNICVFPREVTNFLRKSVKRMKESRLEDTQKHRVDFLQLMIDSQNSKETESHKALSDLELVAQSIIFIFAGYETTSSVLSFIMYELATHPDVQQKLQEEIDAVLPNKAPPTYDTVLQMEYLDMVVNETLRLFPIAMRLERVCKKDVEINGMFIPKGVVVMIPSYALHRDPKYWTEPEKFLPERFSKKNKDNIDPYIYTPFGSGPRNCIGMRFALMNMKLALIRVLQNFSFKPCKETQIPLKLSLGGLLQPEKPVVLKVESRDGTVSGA
Procedure, shortened: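 Luminescent readout of luciferin produced by CYP3A4 (20 nM) dealkylation of Luciferin-PPXE, 25 uM (its KM). NADPH-driven reaction ran 60 min at RT after 10 min compound preincubation; data scaled to 57 uM ketoconazole as 100% inhibition.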

[14] = target: 3',5'-cyclic-AMP phosphodiesterase 4B (Homo sapiens) (UniProt Q07343); experiment: qHTS Assay for Inhibitors of PDE-IV (AID 607; active = well fitted activation curve with a large enough effect in the main read-out, with a control signal flat, not every such curve was filed as active; inconclusive = small, poorly fitted or top-dose-only effect, or effect the other way, or a change in a side signal; note: potency is the fitted concentration of half-maximal effect; for activation (PDE inhibition): % of control where 0% means no effect); conditions: HEK293 ACTOne CNG channel cells, membrane potential fluorescence; activation (PDE inhibition): at 22.9 µM (top of the series)
Chain of UniProt Q07343 (Q07343 whole entry, looked up): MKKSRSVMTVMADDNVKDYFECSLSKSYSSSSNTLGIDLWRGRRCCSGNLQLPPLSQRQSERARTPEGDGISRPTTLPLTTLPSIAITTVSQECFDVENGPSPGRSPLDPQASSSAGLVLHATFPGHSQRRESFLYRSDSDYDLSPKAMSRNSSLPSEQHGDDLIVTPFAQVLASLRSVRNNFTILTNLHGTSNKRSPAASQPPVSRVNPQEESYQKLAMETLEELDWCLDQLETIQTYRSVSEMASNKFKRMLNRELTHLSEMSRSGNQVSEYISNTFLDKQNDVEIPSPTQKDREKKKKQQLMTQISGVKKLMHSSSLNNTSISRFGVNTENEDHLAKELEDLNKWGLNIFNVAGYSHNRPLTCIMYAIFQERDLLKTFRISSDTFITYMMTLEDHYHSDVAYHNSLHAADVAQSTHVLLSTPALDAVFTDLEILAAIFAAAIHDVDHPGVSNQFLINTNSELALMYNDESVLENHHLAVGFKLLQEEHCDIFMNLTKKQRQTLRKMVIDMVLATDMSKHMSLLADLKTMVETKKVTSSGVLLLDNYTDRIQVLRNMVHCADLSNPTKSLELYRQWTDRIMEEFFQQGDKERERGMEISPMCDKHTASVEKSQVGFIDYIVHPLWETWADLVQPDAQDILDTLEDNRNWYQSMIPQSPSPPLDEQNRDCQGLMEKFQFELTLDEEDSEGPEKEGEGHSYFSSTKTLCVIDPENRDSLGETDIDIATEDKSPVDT
Procedure, shortened: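 Live HEK293 cells with a modified cyclic nucleotide-gated (CNG) channel report intracellular cAMP via membrane-potential dye fluorescence (ex 535/em 590 nm). Endogenous PDE-IV was targeted. Compounds were tested at up to 22.9 uM final; RO 20-1724 100 uM served as control.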

[15] = target: Ubiquitin carboxyl-terminal hydrolase 1 (Homo sapiens) (UniProt O94782); experiment: Inhibitors of USP1/UAF1: Pilot qHTS (AID 504865; active = well fitted curve in the direction sought with a large enough effect; inconclusive = small, poorly fitted or top-dose-only effect, or another doubt; inactive = no such curve, though single readings can be large; an effect the other way counts as inactive or inconclusive;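 note: rhodamine fluorescence freed from ubiquitin-rhodamine substrate followed over time; potency is the fitted concentration of half-maximal effect; nearly all actives have a fitted effect of over 35% in size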)
Chain of UniProt O94782 (O94782 whole entry, looked up): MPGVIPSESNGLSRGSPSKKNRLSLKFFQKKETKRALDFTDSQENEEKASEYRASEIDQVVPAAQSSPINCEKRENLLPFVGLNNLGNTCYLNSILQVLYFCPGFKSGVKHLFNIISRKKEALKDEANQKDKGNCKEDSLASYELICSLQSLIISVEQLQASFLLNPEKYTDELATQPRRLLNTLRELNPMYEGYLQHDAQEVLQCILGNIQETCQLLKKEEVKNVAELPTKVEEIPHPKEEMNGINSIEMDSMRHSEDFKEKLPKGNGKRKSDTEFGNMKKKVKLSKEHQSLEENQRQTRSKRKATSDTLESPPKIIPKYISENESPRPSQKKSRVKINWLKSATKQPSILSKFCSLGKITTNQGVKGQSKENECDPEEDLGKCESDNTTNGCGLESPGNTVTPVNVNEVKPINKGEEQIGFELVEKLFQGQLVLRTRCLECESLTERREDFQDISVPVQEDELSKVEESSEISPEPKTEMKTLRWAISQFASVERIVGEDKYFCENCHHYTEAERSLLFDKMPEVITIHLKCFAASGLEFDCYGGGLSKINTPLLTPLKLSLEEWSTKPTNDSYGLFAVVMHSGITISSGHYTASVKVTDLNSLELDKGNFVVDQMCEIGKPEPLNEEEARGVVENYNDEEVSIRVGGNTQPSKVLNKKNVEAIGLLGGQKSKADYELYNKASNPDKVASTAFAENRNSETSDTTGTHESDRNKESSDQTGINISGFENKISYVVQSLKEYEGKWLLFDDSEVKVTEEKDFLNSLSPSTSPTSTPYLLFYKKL
Procedure, shortened: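 Enzyme-free wells gave the negative control, while test wells held 1nM USP1/UAF1 preincubated with compound for 15 min at room temperature. Ub-Rho at 150nM final started the reaction, and fluorescence at 480/540 nm was recorded kinetically.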
Tags give direction and shape of the fitted curve or compound fluorescence and quenching.

In the case of COc1ccc(C(=O)N2CCC3(CCN(Cc4ccc(C#N)cc4)CC3)CC2)cc1, the activity change, negative = inhibition [1] is reported as inconclusive: 73.3% [activator] [at 7.69 µM] and the activity change, negative = inhibition [2] is reported as inconclusive: -40.7% [inhibitor] [at 7.69 µM].
In the case of Cn1c2ccccc2c2nn(-c3ccccc3)c(=O)cc21, the activity change, negative = inhibition [1] is reported as inconclusive: 85% [activator] and the activity change, negative = inhibition [2] is reported as inactive: 2.73%.
In the case of COc1ccc(NC(=O)/C=C\c2ccc(Cl)cc2)cc1, the activity change, negative = inhibition [1] is reported as inconclusive: -40.3% [inhibitor] [at 38 µM], the Potency [3] is reported as active: 5.01 µM and the activity, negative = inhibition [4] is reported as inconclusive: -38.1% [inhibitor] [at 38 µM]. For the same compound, the Potency [5] was inconclusive: 6.31 µM [activator, partial curve, poor fit], the Potency [6] was inconclusive: 1.41 µM [activator, partial curve] and the activation [7] was inconclusive: 86.9%. The Potency [8] was active: 0.316 µM, the Potency [9] was active: 1.41 µM and the Potency [10] was inconclusive: 14.1 µM [inhibitor, partial curve, poor fit]. For the same compound, the Potency [11] was inconclusive: 17.8 µM [inhibitor, partial curve, poor fit] and the Potency [12] was active: 10 µM.
With c1ccc(C2=NN[C@@H]3c4ccccc4-c4ccccc4N3C2)cc1 the activity change, negative = inhibition [1] was inactive: -18.5% [at 7.69 µM], the Potency [3] was active: 0.2 µM and the Potency [13] was inconclusive: 3.16 µM [inhibitor, partial curve]. For the same compound, the Potency [7] was inconclusive: 3.16 µM [inhibitor, single point].
For CC[C@@]12CCCN3CCc4c(n(c5ccccc45)[C@](O)(C(=O)OC)C1)[C@H]32, the activity change, negative = inhibition [1] was inconclusive: 53.6% [activator] and the activity change, negative = inhibition [2] was inactive: -8.76% and inactive: -13.1%.
For O=S(=O)(c1ccccc1)N1CCC2(CCN(c3ncccn3)CC2)CC1, the activity change, negative = inhibition [1] was inconclusive: -32.8% [inhibitor] [at 7.69 µM], the Potency [3] was “inactive” and the activity change, negative = inhibition [2] was inactive: -15.7% [at 7.69 µM]. For the same compound, the Potency [14] was “inactive”.
With COc1cccc(-c2nc(N3CCCCC3)c3ccccc3n2)c1O the activity change, negative = inhibition [1] was inconclusive: -40.6% [inhibitor] and the activity change, negative = inhibition [2] was inconclusive: -94.5% [inhibitor].
For Cc1cccc(CNc2ncnc3ccc(-c4ccc5c(c4)OCO5)cc23)c1, the activity change, negative = inhibition [1] was inconclusive: -57.1% [inhibitor] [at 7.69 µM], the Potency [3] was active: 0.501 µM and the activity change, negative = inhibition [2] was inconclusive: -55.6% [inhibitor] [at 7.69 µM]. For the same compound, the Potency [14] was inconclusive: 10 µM [rising, partial curve], the Potency [7] was inconclusive: 5.01 µM [inhibitor, single point] and the Potency [15] was inconclusive: 11.2 µM [inhibitor, partial curve, poor fit].

Reference: PubChem BioAssay (NCATS)
